{"source": "PubChem BioAssay AID504832", "about": "(National Center for Advancing Translational Sciences (NCATS), 2011)", "note": "The whole screen tested about 310,000 compounds, of which about 18,000 (5.8%) were called active. Inconclusive means that the source gave no clear call. Such entries were picked first, then a sample of the others. The call rests on the fitted dose curve; in most records, active means well fitted inhibition curve with a large enough effect; inconclusive means small, poorly fitted or top-dose-only effect, or another doubt; inactive means no such curve, though single readings can be large or run the other way. Potencies of inconclusive entries are left out as doubtful fits. On the % scale 0 is the no-effect control and ±100 the full control effect; potency means the concentration at half of the fitted maximal effect; tags describe the fitted curve by direction and shape.", "data": [{"experiment": "Primary qHTS for delayed death inhibitors of the malarial parasite plastid, 48 hour incubation", "settings": "P. falciparum luciferase growth in erythrocytes; series mostly up to 28.7 µM; activity change, negative = inhibition: at the top concentration", "in_short": "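In quantitative HTS format, infected erythrocytes bearing luciferase-reporter parasites were treated for a single generation at 37 C. Luminescence after adding detection reagent served as the growth measure.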", "values": [{"smiles": "CSc1ccc(/C=C/C(=O)OCC(=O)N2CCc3ccccc32)cc1", "Potency": "inconclusive [inhibitor, single point]"}, {"smiles": "CN(C)c1cccc(C(=O)OCC(=O)Nc2ccccc2Cl)c1", "activity change, negative = inhibition": "inactive: 14.4%"}, {"smiles": "CCOc1ccc(CNC(=O)Cn2c(=O)c3cccn3c3ccccc32)cc1", "activity change, negative = inhibition": "inactive: 13.3%"}, {"smiles": "O=C1C=C(c2ccc(-c3ccccc3)c(F)c2)C[C@@H](c2ccc(F)cc2)C1", "Potency": "inconclusive [inhibitor, single point]"}, {"smiles": "Cc1ccc(-c2cc(NC(=O)c3ccccc3[N+](=O)[O-])n[nH]2)cc1", "activity change, negative = inhibition": "inactive: 0%"}, {"smiles": "CCOc1ccc(OCC)c(NS(=O)(=O)c2ccc3c(c2)CCN3C(=O)C2CCC2)c1", "Potency": "inconclusive [inhibitor, partial curve, poor fit]"}, {"smiles": "O=C(CSc1nnc2c(n1)[nH]c1ccccc12)N1CCCCC1", "Potency": "inconclusive [inhibitor, single point]"}, {"smiles": "COc1ccc(CN(C)C(=O)C23CC4CC(CC(C4)C2)C3)c(OC)c1", "Potency": "inconclusive [inhibitor, full curve, poor fit]"}, {"smiles": "Cc1ccc(-n2c(O)c(C=NCc3ccco3)c(=O)[nH]c2=S)cc1C", "Potency": "inconclusive [inhibitor, single point]"}, {"smiles": "COc1ccc(NS(=O)(=O)c2cc(NC(=O)c3cnccn3)ccc2N2CCCC2)cc1", "Potency": "inconclusive [inhibitor, single point]"}, {"smiles": "O=C(Cn1c2ccccc2c2nc3n(c(=O)c21)CCCS3)Nc1ccccc1", "Potency": "inconclusive [inhibitor, full curve, poor fit]"}, {"smiles": "O=C(CNS(=O)(=O)c1ccccc1)OCC(=O)c1c[nH]c2ccccc12", "Potency": "active: 8.28 µM"}, {"smiles": "CCCc1cc(=O)oc2cc(OCC(=O)NC3CCN(Cc4ccccc4)CC3)ccc12", "Potency": "inconclusive [inhibitor, single point]"}, {"smiles": "COc1cc(Cl)c(CN2CCC(CO)(CCOc3ccccc3)CC2)cc1OC", "Potency": "inconclusive [inhibitor, partial curve]"}, {"smiles": "COc1ccc(NS(=O)(=O)c2cccc(C(=O)NCC3(N4CCCCC4)CCCCC3)c2)cc1", "Potency": "inconclusive [inhibitor, single point]"}, {"smiles": "CCC(C)c1ccccc1NC(=S)Nc1cccnc1", "note": "(configuration not stated)", "Potency": "inconclusive [inhibitor, full curve, poor fit]"}, {"smiles": "O=C1C(=O)N(CNc2cccnc2)c2ccccc21", "activity change, negative = inhibition": "inactive: 2.28%"}, {"smiles": "COc1cccc(C(=O)Nc2cc(C(=O)NCc3ccc(C)cc3)ccc2N2CCC3(CC2)CC(c2ccccc2)=NO3)c1", "Potency": "inconclusive [inhibitor, full curve, poor fit]"}, {"smiles": "CN(C(=O)c1ccc(C#N)cc1)c1nnc(-c2cnccn2)s1", "activity change, negative = inhibition": "inactive: 0.192%"}, {"smiles": "Cn1c(=O)n(Cc2ccccc2)c(=O)c2c1nc1n2CCN1Cc1ccco1", "activity change, negative = inhibition": "inactive: -21.3%"}, {"smiles": "O=[N+]([O-])c1c(Nc2ccccc2)ccc2nonc12", "activity change, negative = inhibition": "inactive: 18.3%"}, {"smiles": "O=C(Nc1ccc(C2=NCCN2)cc1)c1ccc(C(=O)Nc2ccc(C3=NCCN3)cc2)c([N+](=O)[O-])c1", "Potency": "active: 0.37 µM"}, {"smiles": "COc1cccc(C(c2ccccc2)N2C3CCC2CN(S(=O)(=O)c2ccc(F)cc2)CC3)c1", "note": "(configuration not stated)", "Potency": "active: 2.08 µM"}, {"smiles": "COc1ccccc1-n1ccnc1SCC(=O)NCc1ccco1", "Potency": "inconclusive [inhibitor, full curve, poor fit]"}, {"smiles": "COc1ccc(OCc2cc(C(=O)N3CCCC(CO)C3)no2)c2ccccc12", "note": "(configuration not stated)", "activity change, negative = inhibition": "inactive: -9.86%"}, {"smiles": "CC1(C)Cc2c(cnn2-c2cccc(F)c2)C(NC(=O)CSc2ccncc2)C1", "note": "(configuration not stated)", "Potency": "inconclusive [inhibitor, single point]"}, {"smiles": "COc1ccc(Cl)cc1Nc1nc(C)nc2c1oc1ccccc12", "Potency": "inconclusive [inhibitor, single point]"}, {"smiles": "COc1cccc(NC(=O)CN(C)CC(=O)c2c(C)[nH]c3ccccc23)c1", "Potency": "inconclusive [inhibitor, partial curve, poor fit]"}, {"smiles": "COc1ccc(CN2CCN(C(=O)c3cc(-c4cccnc4)nc4ccc(Cl)cc34)CC2)c(OC)c1OC", "Potency": "inconclusive [inhibitor, partial curve]"}, {"smiles": "O=C(CSc1nc2ccccc2c(=O)n1CC1CCCO1)NCc1ccccc1", "note": "(configuration not stated)", "Potency": "inconclusive [inhibitor, single point]"}, {"smiles": "Cc1cc(C)n(-c2nc3sc4c(c3c3nnc(SCC(N)=O)n23)CC(C)(C)OC4)n1", "Potency": "inconclusive [inhibitor, single point]"}, {"smiles": "O=C(NCC1CCCN(Cc2ccccc2F)C1)c1cccc(C(F)(F)F)c1", "note": "(configuration not stated)", "activity change, negative = inhibition": "inactive: -4.67%"}, {"smiles": "CCOC(=O)[C@H]1[C@H]2COc3ccc(OC)cc3[C@@H]2N2C(=O)CN(Cc3ccccc3)C(=O)[C@@]12C", "Potency": "active: 10.4 µM"}, {"smiles": "O=C(NCC1CCN(c2ccc(S(=O)(=O)N3CCOCC3)cc2)CC1)Nc1ccccc1", "Potency": "inconclusive [inhibitor, partial curve]"}, {"smiles": "COCc1cc(C)nc(SCc2ccccc2)c1C#N", "Potency": "inconclusive [inhibitor, partial curve, poor fit]"}, {"smiles": "COc1ccc(C)cc1Nc1nc(N)c2cc(OC)c(OC)cc2n1", "Potency": "active: 1.04 µM"}, {"smiles": "O=C(Cc1cccc(NC(=O)C2CCN(C(=O)CCc3ccccc3)CC2)c1)Nc1cccc(C(=O)N2CCCC2)c1", "Potency": "active: 11.7 µM"}, {"smiles": "CC(=O)Nc1ccc(NC(=O)CSc2nc(N)c(NC(=O)c3ccco3)c(=O)[nH]2)cc1", "Potency": "inconclusive [inhibitor, full curve, poor fit]"}, {"smiles": "Cc1ccc(S(=O)(=O)NCCC(=O)N2CCC(C)CC2)cc1", "activity change, negative = inhibition": "inactive: 1.27%"}, {"smiles": "COc1cccc(C2SCC(=O)N2c2cccc(C)c2)c1OC", "note": "(configuration not stated)", "Potency": "inconclusive [inhibitor, partial curve]"}, {"smiles": "CSCCC(NC(=O)c1ccccc1Cl)C(=O)Nc1ccc(C)c(S(=O)(=O)N2CCOCC2)c1", "note": "(configuration not stated)", "Potency": "active: 9.28 µM"}, {"smiles": "CCc1cc2c(SCc3nc4sc(C(C)=O)c(C)c4c(=O)[nH]3)ncnc2s1", "Potency": "inconclusive [inhibitor, partial curve, poor fit]"}]}]}
